# The full ranking holds about 33,000 sequences; the median of “E-score (-0.5 to 0.5)” is about -0.021, and the highest 2% start at about 0.32. This is one part of the list.
# Target: T1, Zap1 (UniProt P47043)
# T1 sequence: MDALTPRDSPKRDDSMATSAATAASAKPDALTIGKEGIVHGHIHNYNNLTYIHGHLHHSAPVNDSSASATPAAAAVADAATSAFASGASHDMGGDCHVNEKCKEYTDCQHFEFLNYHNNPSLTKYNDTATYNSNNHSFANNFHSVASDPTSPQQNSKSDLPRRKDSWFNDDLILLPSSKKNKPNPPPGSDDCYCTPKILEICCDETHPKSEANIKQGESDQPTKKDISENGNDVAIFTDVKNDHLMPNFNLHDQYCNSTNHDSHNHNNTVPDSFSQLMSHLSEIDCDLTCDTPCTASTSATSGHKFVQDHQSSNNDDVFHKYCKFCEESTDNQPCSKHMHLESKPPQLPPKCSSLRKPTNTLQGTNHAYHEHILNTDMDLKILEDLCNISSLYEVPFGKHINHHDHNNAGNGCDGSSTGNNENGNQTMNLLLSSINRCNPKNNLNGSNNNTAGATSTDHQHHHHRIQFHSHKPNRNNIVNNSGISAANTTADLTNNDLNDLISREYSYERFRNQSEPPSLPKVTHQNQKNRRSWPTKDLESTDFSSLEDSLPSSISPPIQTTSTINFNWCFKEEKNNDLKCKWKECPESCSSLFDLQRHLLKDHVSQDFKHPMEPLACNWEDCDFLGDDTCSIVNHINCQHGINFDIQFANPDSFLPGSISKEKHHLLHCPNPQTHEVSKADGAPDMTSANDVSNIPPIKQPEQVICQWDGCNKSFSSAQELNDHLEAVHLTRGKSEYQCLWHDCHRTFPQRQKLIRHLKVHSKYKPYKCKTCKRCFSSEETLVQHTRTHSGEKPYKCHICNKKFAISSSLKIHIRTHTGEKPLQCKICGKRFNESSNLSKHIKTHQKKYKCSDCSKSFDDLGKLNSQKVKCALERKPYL
# Test: PBM E-score (8-mer binding enrichment) (E-score (-0.5 to 0.5)); higher = stronger / more preferred TF binding; most listed sequences are background and not binding sites
# Conditions: protein concentration: 200 nM; construct: GST-full length
# Outline: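 Masliner-normalised scans of fluorescent anti-GST signal were the basis for scoring. That signal came from GST-tagged yeast transcription factors applied at about 100-200 nM to double-stranded universal all-10-mer Agilent arrays on fresh or once-stripped slides. Each ungapped eight-base word, pooled with its reverse complement, received an E-score from the Universal PBM Analysis Suite.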
row,Sequence,PBM E-score
1,CCGAAGGC,-0.109
2,GGATGAAA,0.0693
3,CATGGAAC,0.0818
4,CTTCTAGC,-0.243
5,CCACTGCC,-0.129
6,CTCAAGAA,0.0854
7,AAGCCGCC,-0.381
8,ACTAAGGG,0.156
9,AGAGTACC,0.191
10,AGCAGTTA,0.0176
11,CTTCTCTA,-0.174
12,AATACCTC,0.296
13,CATAGTCC,-0.0604
14,TAATTTAA,0.183
15,GATCTGCA,-0.162
16,AGAACCAT,0.184
17,ACGCAAGC,-0.0912
18,TCTTCTAA,0.0973
19,ATGATCAC,0.172
20,GGTCATTA,0.321
21,AACATATT,0.0352
22,ACCCGCAG,0.225

row,Sequence,PBM E-score
1,AAACCTAC,0.194
2,CACCGTGA,0.0105
3,ACGCCGCT,-0.0905
4,CCCATGGA,0.208
5,CATTGAAA,0.174
6,GCCGCTAA,0.152
7,ATTCATGG,0.0815
8,AGCTGTAC,-0.151
9,CAATTCTA,0.11
10,ACCTGCAA,0.057
11,ATACATGA,-0.0713
12,CGCCAAGA,-0.128
13,AATAGGTA,0.314
14,AAGTTCTA,-0.0519
15,CGACCTTA,0.207
16,AGATGTGC,-0.213
17,AAAACCAT,0.283
18,CGGTGGCA,-0.312
19,TTATTGAA,0.158
20,GCACCACA,-0.153
21,TAACGAGA,-0.0403
22,AGCACCAG,-0.0624

row,Sequence,PBM E-score
1,CCGCCTCC,-0.252
2,ACGCCAGG,0.019
3,GGAATGCC,-0.00306
4,AACTTACT,-0.0256
5,TCATCTCA,-0.0211
6,CCGATGTC,-0.0474
7,CAGCTAAC,-0.0775
8,ACACTGGG,-0.14
9,ATATCTTA,0.106
10,GCCGGCAA,-0.00777
11,ACCTAGGA,0.159
12,AAAGGGAG,-0.17
13,CTATTGTA,0.062
14,CGCTTGTA,-0.0149
15,GAGTCACC,0.0467
16,ATAATTTA,0.18
17,AGAAGACT,-0.205
18,ACGTCCAG,-0.256
19,CATTTGCG,-0.0445
20,AGTGCGAA,-0.172
21,CTAGCCAA,0.00097
22,ATCCCTCA,-0.0235

row,Sequence,PBM E-score
1,AATACTCT,0.11
2,TACGTTAA,0.11
3,AGAATCTC,-0.0812
4,CGTACCCA,-0.0471
5,GCTCATTA,-0.0205
6,GTTGGAAA,-0.045
7,ATTACGGC,-0.0589
8,ATAGGAAC,0.0152
9,GGTATACA,0.125
10,CCGGCCCG,-0.0444
11,AAACAGAG,-0.0876
12,ATACCTTG,0.256
13,AGGCATAT,-0.184
14,GGGTTCCA,0.113
15,ACTGCAGG,-0.025
16,GAGCCCTC,-0.216
17,CTTCAAGC,-0.0804
18,GTGCTATA,-0.0354
19,CAGAGTTA,0.0742
20,CGACCGTA,-0.0373
21,CCACCCGA,0.224
22,ACGATTGA,-0.0728

row,Sequence,PBM E-score
1,ATAAGCCC,-0.193
2,GGATACGA,-0.0671
3,ATGATAAA,0.197
4,CATCTAGG,0.0237
5,CCTAATAA,0.163
6,CTTCGTAA,-0.0447
7,CCCCAAAA,0.198
8,ATATACGG,-0.0743
9,CCTCAGGA,-0.104
10,ACTGGGTG,0.0162
11,AAAACCCA,0.258
12,GCTCGCAA,0.0398
13,ACTCTTTC,-0.066
14,ATCTAGAA,0.105
15,CCTTCTGA,0.0258
16,CAGGCCTG,-0.125
17,CGCAGGGA,-0.102
18,ACTCGATG,0.0275
19,AGTGTAGA,-0.103
20,TACCCCTA,0.366
21,ATATCAAA,0.12
22,TAGATCTA,0.0161
